Test results reported in a collection of fitness landscapes (doi:10.1016/j.celrep.2020.107928).
Whole data set: some 81,000 sequences, median “one-hybrid fitness for binding NBS DNA” near -0.1, cut for the highest 2% near 0.36. This is one part of the list.

B1: Caulobacter ParB omega fusion; a variant is named by its letters at X, in order, B8GW30 (parent)
chain: MESVVVGEPGMSEGRRGLGRGLSALLGEVDAAPAQAPGEQLGGSREAPIEILQRNPDQPRRTFREEDLEDLSNSIREKGVLQPILVRPSPDTAGEYQIVAGERAWRAAQRAGLKTVPIMVRELDDLAVLEIGIIENVQRADLNVLEEALSYKVLMEKFERTQENIAQTIGKSXSHVANXMRLLXLPDEVQSYLVSGELTAXHARAIAAAADPVALAKQIIEGGLSVRETEALARKAPNLSAGKSKGGRPPRVKDTDTQALESDLSSVLGLDVSIDHRGSTGTLTITYATLEQLDDLCNRLTRGI

Variants of: B1
Test: one-hybrid fitness for binding NBS DNA (the Noc-binding site; scaled: cognate 1, non-cognate 0); higher = stronger binding
Details: with NBS DNA site
In short: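 Pre- and post-selection plasmids were Illumina-sequenced, three replicate libraries were pooled, and any variant with under 10 reads was removed. The libraries were Caulobacter ParB with four specificity codons randomised, selected in E. coli USO through a HIS3 reporter whose site is 19 bp from the promoter. Cells grew 48 hours at 37°C on M9 without histidine, with 0.1 mM IPTG and 5 mM 3-AT. Fitness is the log change in variant-to-wild-type read ratio, rescaled against cognate and non-cognate.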

| Variant | one-hybrid fitness for binding NBS DNA |
| --- | --- |
| ERST | ≤ 0.2 |
| HGMR | ≤ 0.2 |
| ITKI | ≤ 0.2 |
| AVQR | ≤ 0.2 |
| QYHS | 0.417 |
| FVWT | ≤ 0.2 |
| SHMM | ≤ 0.2 |
| RVRE | ≤ 0.2 |
| RWNS | 0.237 |
| PCWK | 0.33 |
| LLPK | ≤ 0.2 |
| RTDW | ≤ 0.2 |
| MPDG | ≤ 0.2 |
| PDKW | ≤ 0.2 |
| RCCL | ≤ 0.2 |
| YYWC | ≤ 0.2 |
| YGQL | ≤ 0.2 |
| FDPR | ≤ 0.2 |
| TCIV | ≤ 0.2 |
| KSAQ | ≤ 0.2 |
| YSNS | ≤ 0.2 |
| DRFH | ≤ 0.2 |
| FNIG | ≤ 0.2 |
| AREN | ≤ 0.2 |
| CNTR | ≤ 0.2 |
| HTIA | ≤ 0.2 |

| Variant | one-hybrid fitness for binding NBS DNA |
| --- | --- |
| PPLR | ≤ 0.2 |
| HMRT | ≤ 0.2 |
| TEAK | ≤ 0.2 |
| EDFT | ≤ 0.2 |
| FYMV | ≤ 0.2 |
| EAVV | ≤ 0.2 |
| RMLM | ≤ 0.2 |
| YTLN | ≤ 0.2 |
| PTGK | ≤ 0.2 |
| EFEG | ≤ 0.2 |
| KETR | ≤ 0.2 |
| EVWG | ≤ 0.2 |
| NCSN | ≤ 0.2 |
| SAGR | ≤ 0.2 |
| QTVT | 0.517 |
| KVVM | ≤ 0.2 |
| QGMC | ≤ 0.2 |
| QKVK | ≤ 0.2 |
| SHRG | ≤ 0.2 |
| INTV | ≤ 0.2 |
| FNAT | ≤ 0.2 |
| PEST | ≤ 0.2 |
| PLWG | ≤ 0.2 |
| KLKY | ≤ 0.2 |
| QKSP | ≤ 0.2 |
| YGES | ≤ 0.2 |

| Variant | one-hybrid fitness for binding NBS DNA |
| --- | --- |
| QRSN | 0.366 |
| EPLM | ≤ 0.2 |
| ACTS | ≤ 0.2 |
| PINS | ≤ 0.2 |
| QEES | ≤ 0.2 |
| PMAC | ≤ 0.2 |
| GGII | ≤ 0.2 |
| QVPV | ≤ 0.2 |
| RNQF | ≤ 0.2 |
| YGGC | ≤ 0.2 |
| RRNV | 0.456 |
| AFIL | ≤ 0.2 |
| LCKL | ≤ 0.2 |
| HQLI | ≤ 0.2 |
| GCAV | ≤ 0.2 |
| QSVY | ≤ 0.2 |
| MEKG | ≤ 0.2 |
| HKTS | ≤ 0.2 |
| DMHA | ≤ 0.2 |
| YSSM | ≤ 0.2 |
| HCCR | ≤ 0.2 |
| HEIR | ≤ 0.2 |
| GIEG | ≤ 0.2 |
| TWQE | ≤ 0.2 |
| YPTH | ≤ 0.2 |
| RFIW | ≤ 0.2 |

| Variant | one-hybrid fitness for binding NBS DNA |
| --- | --- |
| RTQR | 0.575 |
| PYFG | ≤ 0.2 |
| NGCR | ≤ 0.2 |
| YPTM | ≤ 0.2 |
| KILR | ≤ 0.2 |
| RRAH | 0.406 |
| WYVG | ≤ 0.2 |
| QTWL | ≤ 0.2 |
| ASPW | ≤ 0.2 |
| GMKY | ≤ 0.2 |
| PYNV | ≤ 0.2 |
| WDVI | ≤ 0.2 |
| VQTL | ≤ 0.2 |
| VMGT | ≤ 0.2 |
| QLVM | ≤ 0.2 |
| SSVY | ≤ 0.2 |
| VDIV | ≤ 0.2 |
| QYDK | ≤ 0.2 |
| RYWK | ≤ 0.2 |
| VRSD | ≤ 0.2 |
| ELNT | ≤ 0.2 |
| RGVP | ≤ 0.2 |
| CCCT | ≤ 0.2 |
| QTSC | 0.214 |
| RQMP | ≤ 0.2 |
| GATL | ≤ 0.2 |

| Variant | one-hybrid fitness for binding NBS DNA |
| --- | --- |
| NRDY | ≤ 0.2 |
| HGWS | ≤ 0.2 |
| PRGQ | ≤ 0.2 |
| TSIY | ≤ 0.2 |
| IATN | ≤ 0.2 |
| TRKQ | ≤ 0.2 |
| EQRG | ≤ 0.2 |
| YTSL | ≤ 0.2 |
| CYCT | ≤ 0.2 |
| CTGM | ≤ 0.2 |
| YHPT | ≤ 0.2 |
| MFTM | ≤ 0.2 |
| HSER | ≤ 0.2 |
| FDTD | ≤ 0.2 |
| ASKL | ≤ 0.2 |
| WWDR | ≤ 0.2 |
| YPQL | ≤ 0.2 |
| SSCQ | ≤ 0.2 |
| HFAC | ≤ 0.2 |
| NTNF | ≤ 0.2 |
| WKSS | ≤ 0.2 |
| NVEV | ≤ 0.2 |
| VYQL | ≤ 0.2 |
| QKHD | ≤ 0.2 |
| MNRW | ≤ 0.2 |
| ERRD | ≤ 0.2 |

| Variant | one-hybrid fitness for binding NBS DNA |
| --- | --- |
| QRHS | 0.718 |
| VSER | ≤ 0.2 |
| EQMT | ≤ 0.2 |
| RFRY | ≤ 0.2 |
| RTFY | ≤ 0.2 |
| MWAV | ≤ 0.2 |
| QQNL | ≤ 0.2 |
| QREG | ≤ 0.2 |
| QQYG | ≤ 0.2 |
| VPEI | ≤ 0.2 |
| HNEF | ≤ 0.2 |
| LAYM | ≤ 0.2 |
| LQPL | ≤ 0.2 |
| PNGR | ≤ 0.2 |
| TKGR | ≤ 0.2 |
| AEYV | ≤ 0.2 |
| CTEC | ≤ 0.2 |
| LHTL | ≤ 0.2 |
| KTEG | ≤ 0.2 |
| CAIT | ≤ 0.2 |
| FWLS | ≤ 0.2 |
| RIYG | ≤ 0.2 |
| YDPS | ≤ 0.2 |
